# Reference: the supplement of paper PMC12582362
# Counter-ions that a name gives are not always drawn. About 30 (2%) of roughly 1,500 compounds showed activity.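 Rule for the calls: active = robust z-score below -2; a few such results were not called.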 This is one part of the list.
# Tested on: optoTopBP1 Flp-In 293 T-REx (HEK293) cells
# Assay: light-induced TopBP1 condensate (nuclear foci) count, plate-normalised robust z-score vs non-control wells; higher = more TopBP1 condensates (negative = condensation inhibitor), active = hit call of the paper
# Conditions: 10 µM; incubation time 2 h
row,Compound,light-induced TopBP1 condensate (z-score)
1,NNCCc1ccccc1 [Phenelzine sulfate],inactive: -0.188
2,C[C@H]1O[C@H](O[C@H]2[C@H](O)[C@@H](O)[C@@H](O[C@H]3[C@H](O)[C@@H](O)C(O)O[C@@H]3CO)O[C@@H]2CO)[C@H](O)[C@@H](O)[C@@H]1N[C@H]1C=C(CO)[C@@H](O)[C@H](O)[C@H]1O (some centres not stated) [Acarbose],inactive: -1.13
3,CC(C)(CO)[C@@H](O)C(=O)NCCC(=O)NCCSSCCNC(=O)CCNC(=O)[C@H](O)C(C)(C)CO [Pantethine],inactive: 0.505
4,CN1CCC(=C2c3ccccc3C=Cc3ccccc32)CC1 [Cyproheptadine hydrochloride],inactive: -0.51
5,CO[C@H]1/C=C/O[C@@]2(C)Oc3c(C)c(O)c4c(O)c(c(/C=N/N5CCN(C6CCCC6)CC5)c(O)c4c3C2=O)NC(=O)/C(C)=C\C=C\[C@H](C)[C@H](O)[C@@H](C)[C@@H](O)[C@@H](C)[C@H](OC(C)=O)[C@@H]1C [Rifapentine],inactive: 0.932
6,CC(C)(C)NC[C@@H](O)COc1cccc2c1CCCC2=O [(+) -Levobunolol hydrochloride],inactive: 0.326
7,N=C(N)NC(=N)NCCc1ccccc1 [Phenformin hydrochloride],inactive: 1.28
8,NCCc1c[nH]cn1 [Histamine dihydrochloride],inactive: -0.965
9,OC(Cn1cncn1)(Cn1cncn1)c1ccc(F)cc1F [Fluconazole],inactive: 0.635
10,CCCOc1cc(N)ccc1C(=O)OCCN(CC)CC [Propoxycaine hydrochloride],inactive: 0.623
11,C[C@@H](NCCCc1cccc(C(F)(F)F)c1)c1cccc2ccccc12 [Cinacalcet hydrochloride],inactive: -0.495
12,CC[N+](C)(C)c1cccc(O)c1 [Edrophonium chloride],inactive: -0.419
13,OCCN1CCN(CC/C=C2/c3ccccc3Sc3ccc(C(F)(F)F)cc32)CC1 [Flupentixol dihydrochloride cis-(Z)],inactive: -0.307
14,Cc1cn[nH]c1 [Fomepizole],inactive: -0.606
15,CC(=O)OCC(=O)[C@@]1(O)CC[C@H]2[C@@H]3CCC4=CC(=O)C=C[C@]4(C)[C@@]3(Cl)[C@@H](Cl)C[C@@]21C [Dichlorisone acetate],inactive: -0.0617
16,COC(=O)Nc1nc2cc(C(=O)c3cccs3)ccc2[nH]1 [Nocodazole],inactive: -1.07
17,Cc1ccc(C(=O)c2ccc(CC(=O)O)n2C)cc1 [Tolmetin sodium salt dihydrate],inactive: -0.453
18,CCCCN(CCCC)CCCOC(=O)c1ccc(N)cc1 [Butacaine],inactive: -0.0392
19,CC[N+](C)(CC)CCOC(=O)C1c2ccccc2Oc2ccccc21 [Methantheline bromide],inactive: 0.691
20,CC(=O)OCC(=O)[C@@]1(O)CC[C@H]2[C@@H]3CCC4=CC(=O)CC[C@]4(C)[C@@]3(F)[C@@H](O)C[C@@]21C [Fludrocortisone acetate],inactive: 0.185
21,NS(=O)(=O)c1cc(C2(O)NC(=O)c3ccccc32)ccc1Cl (configuration not stated) [Chlorthalidone],inactive: 0.367

row,Compound,light-induced TopBP1 condensate (z-score)
1,C=CC(N)CCC(=O)O (configuration not stated) [Vigabatrin hydrochloride],inactive: -0.0473
2,CC(=O)OCC(=O)[C@@]1(O)CC[C@H]2[C@@H]3CCC4=CC(=O)CC[C@]4(C)[C@H]3[C@@H](O)C[C@@]21C [Cortisol acetate],inactive: -0.591
3,CC(C)c1c(C(=O)Nc2ccccc2)c(-c2ccccc2)c(-c2ccc(F)cc2)n1CC[C@@H](O)C[C@@H](O)CC(=O)O [Atorvastatin],inactive: 0.252
4,Cc1ncc(C[n+]2csc(CCO)c2C)c(N)n1 [Thiamine hydrochloride],inactive: 1.37
5,CCN[C@H]1CN(CCCOC)S(=O)(=O)c2sc(S(N)(=O)=O)cc21 [Brinzolamide],inactive: 0.971
6,CC(=O)Oc1ccccc1C(=O)Nc1ncc([N+](=O)[O-])s1 [Nitazoxanide],inactive: -0.561
7,Oc1cc(O)c2c(c1)O[C@H](c1ccc(O)c(O)c1)[C@@H](O)C2 [Cianidanol],inactive: 0.871
8,CCCCOCCOCCOCc1cc2c(cc1CCC)OCO2 [Piperonyl butoxide],inactive: 0.0629
9,CCN(CC)CCOC(=O)C1(C2CCCCC2)CCCCC1 [Dicyclomine hydrochloride],inactive: 0.739
10,CCCCC(O)c1ccccc1 (configuration not stated) [Fenipentol],inactive: -0.425
11,CC(N/C(=N\C#N)Nc1ccncc1)C(C)(C)C (configuration not stated) [Pinacidil],inactive: -0.688
12,COc1cc(C(=O)OCCCN2CCCN(CCCOC(=O)c3cc(OC)c(OC)c(OC)c3)CC2)cc(OC)c1OC [Dilazep dihydrochloride],inactive: 0.49
13,O=C1c2c(O)cccc2Cc2cccc(O)c21 [Anthralin],inactive: -0.589
14,C[C@@H]1C[C@H]2[C@@H]3C[C@H](F)C4=CC(=O)C=C[C@]4(C)[C@@]3(F)[C@@H](O)C[C@]2(C)[C@@]1(O)C(=O)CO [Flumethasone],inactive: 0.794
15,O=C(O)Cc1ccc(-c2ccccc2)cc1 [Felbinac],inactive: -0.83
16,O=C(O)c1cn(-c2ccc(F)cc2)c2cc(N3CCNCC3)c(F)cc2c1=O [Sarafloxacin],inactive: 0.514
17,C[N+]1(C)CCC(OC(=O)C(O)(c2ccccc2)C2CCCC2)C1 (configuration not stated) [Glycopyrrolate],inactive: 0.0941
18,Clc1ccc(CCC(Cn2ccnc2)Sc2c(Cl)cccc2Cl)cc1 (configuration not stated) [Butoconazole nitrate],inactive: -0.455
19,N#Cc1ccc(C(c2ccc(C#N)cc2)n2cncn2)cc1 [Letrozole],inactive: 0.389
20,NCc1ccccc1CC(=O)N[C@@H]1C(=O)N2C(C(=O)O)=C(CSc3nnnn3CC(=O)O)CS[C@H]12 [Ceforanide],inactive: 0.483
21,N=C(NCCCCCCNC(=N)NC(=N)Nc1ccc(Cl)cc1)NC(=N)Nc1ccc(Cl)cc1 [Chlorhexidine],inactive: 0.68
